Source: the antibiotic and cytotoxicity screens of Wong et al. (2023)
The other results are listed elsewhere or left out.

The molecules below were run on HSkMC (human skeletal muscle cells) (assay: cytotoxicity call (relative viability < 0.9)). Details: 10 µM.
In the case of `C[C@@H]1CN([C@@H](C)CO)C(=O)c2cc(NC(=O)CCC(F)(F)F)ccc2O[C@@H]1CN(C)S(=O)(=O)c1cn(C)cn1`, the cytotoxicity call is reported as “inactive”.
`COC(=O)c1sc2ccccc2c1NC(=O)c1ccc(S(=O)(=O)N2C[C@@]3(C)C[C@@H]2CC(C)(C)C3)cc1` was tested, and the cytotoxicity call was “inactive”.
For `O=C(C[C@H]1C=C[C@H](NC(=O)Cc2ccccn2)[C@H](CO)O1)NCCCN1CCOCC1`, the cytotoxicity call was “inactive”.
With `CCS(=O)(=O)N1CC[C@]2(CC1)CN([C@H](CO)c1[nH]c3cc(ccc3c12)OC)C(=O)Cc1ccccn1` the cytotoxicity call was “inactive”.
With `Cc1coc2c1C(=O)C(=O)c1c-2ccc2c1CCCC2(C)C` the cytotoxicity call was “active”.
`CCOC(=O)CSc1nnc2c3sc4nc(N5CCOCC5)c5c(c4c3ncn12)CC(C)(C)OC5` was tested, and the cytotoxicity call was “inactive”.
`CCN1C(C)(C)CC(Oc2ccc(C(=O)Nc3ccc(NC(=O)Nc4cc(C(C)(C)C)on4)cc3)nc2)CC1(C)C` was tested, and the cytotoxicity call was “active”.
With `COc1ccc2c3c(n(c2c1)C)[C@H](CO)N(C[C@]13CN(C1)C(=O)c1ccccn1)S(=O)(=O)c1ccc(cc1)C` the cytotoxicity call was “inactive”.
In the case of `C[C@@H]1CN([C@H](C)CO)C(=O)c2cc(NC(=O)Nc3ccc4c(c3)OCO4)ccc2O[C@@H](C)CCCCO[C@H]1CN(C)Cc1ccc2c(c1)OCO2`, the cytotoxicity call is reported as “inactive”.
In the case of `COc1ccc(-c2ccc3n(c2=O)C[C@H]2[C@H](CO)[C@@H](C(=O)NCC4CC4)[C@@H]3N2S(C)(=O)=O)cc1`, the cytotoxicity call is reported as “inactive”.
With `O=C(O)c1cccnc1Nc1cccc(C(F)(F)F)c1` the cytotoxicity call was “inactive”.
`COc1ccc(CN(C)C[C@H]2OCCCC[C@@H](C)Oc3ccc(NC(=O)NC(C)C)cc3C(=O)N([C@H](C)CO)C[C@H]2C)cc1` was tested, and the cytotoxicity call was “inactive”.
In the case of `C[C@@H]1CN([C@@H](C)CO)C(=O)c2cc(NS(=O)(=O)c3ccc(Cl)cc3)ccc2O[C@@H]1CN(C)Cc1ccc(-c2ccccc2)cc1`, the cytotoxicity call is reported as “active”.
`O=C(CCCCCCC(=O)Nc1ccc([C@H]2O[C@@H](CSc3ccncc3)C[C@@H](c3ccccc3)O2)cc1)NO` was tested, and the cytotoxicity call was “inactive”.
In the case of `O=C(C[C@H]1CC[C@@H]2[C@H](COC[C@H](O)CN2C(=O)c2ccncc2)O1)NC1CCC1`, the cytotoxicity call is reported as “inactive”.
`C=C1C(=O)OC2CC3(C)CCCC(C)C3=CC12` (stereo not given) was tested, and the cytotoxicity call was “active”.
In the case of `COc1cc(C)ccc1S(=O)(=O)N1[C@@H]2CC[C@@H](C2)[C@H]1c1nc2cccc(OCc3ccccc3)c2[nH]1`, the cytotoxicity call is reported as “inactive”.
With `C[C@H](CO)N1C[C@H](C)[C@H](CN(C)C(=O)Nc2ccc3c(c2)OCO3)OCCCC[C@H](C)Oc2ccc(NC(=O)NC3CCCCC3)cc2C1=O` the cytotoxicity call was “inactive”.
With `O=C(C[C@H]1C[C@H]2c3cc(NS(=O)(=O)c4ccc(F)cc4)ccc3O[C@H]2[C@H](CO)O1)N1CCCCC1` the cytotoxicity call was “inactive”.
For `C[C@@H]1CN([C@@H](C)CO)C(=O)c2cccc(NC(=O)C3CC3)c2O[C@@H]1CN(C)Cc1ccc2c(c1)OCO2`, the cytotoxicity call was “inactive”.
